Measurements: US20260201058A1 (SICHUAN HUIYU PHARMACEUTICAL, published 2026)

Legend:
[1] = target: T1, hFc-tagged human MSLN recombinant protein (huMSLN-hFc, Kactus Biosystems, MSL-HM280) (human, UniProt Q13421 296-580); test: Carterra HC200M chip, antibody captured via anti-human IgG Fc, 1:1 model
T1 construct: Bought protein; also called huMSLN-Fc; human MSLN-Fc

[2] = target: T2, human PD-L1 protein (ACRO, PD1-H5258) (human, UniProt Q9NZQ7 part only); test: as above
T2 construct: Bought protein; also called Human PDL1-Fc
T2 sequence (Q9NZQ7 19-238): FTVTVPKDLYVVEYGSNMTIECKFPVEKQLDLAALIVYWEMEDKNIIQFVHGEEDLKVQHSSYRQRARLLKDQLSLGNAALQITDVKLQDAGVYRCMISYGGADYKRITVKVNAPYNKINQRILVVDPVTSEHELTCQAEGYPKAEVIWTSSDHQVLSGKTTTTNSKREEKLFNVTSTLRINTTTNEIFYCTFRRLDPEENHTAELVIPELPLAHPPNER

[3] = target: T3, human CD3εγ (acrobiosystems, CDG-H52W5) (human, UniProt P07766 23-126; P09693 23-116); test: as above
T3 construct: Bought protein
T3 sequence (P07766 23-126, chain 1 of 2): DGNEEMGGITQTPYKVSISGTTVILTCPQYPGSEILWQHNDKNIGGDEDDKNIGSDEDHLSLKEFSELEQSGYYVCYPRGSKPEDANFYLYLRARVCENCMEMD
T3 sequence (P09693 23-116, chain 2 of 2, further chain): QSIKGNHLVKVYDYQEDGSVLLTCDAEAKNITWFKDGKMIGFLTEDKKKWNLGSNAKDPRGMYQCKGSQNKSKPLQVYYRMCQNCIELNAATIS

[4] = target: CD3 on human Jurkat cells (ATCC TIB-152) (human); test: flow cytometry on Jurkat cells

T1 sequence (Q13421 other isoform, or with tags, fused parts or gaps): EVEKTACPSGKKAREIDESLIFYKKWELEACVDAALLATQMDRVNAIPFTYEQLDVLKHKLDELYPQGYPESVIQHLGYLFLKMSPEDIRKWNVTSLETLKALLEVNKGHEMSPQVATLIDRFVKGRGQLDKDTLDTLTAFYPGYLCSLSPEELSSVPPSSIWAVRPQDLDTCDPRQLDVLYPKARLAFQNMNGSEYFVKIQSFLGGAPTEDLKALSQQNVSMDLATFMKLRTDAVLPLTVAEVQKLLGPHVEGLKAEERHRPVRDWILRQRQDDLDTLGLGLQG

Binder	Kd [1] [nM]	Kd [2] [nM]	Kd [3] [nM]	EC50 [4] [nM]
CD3-PDL1-MSLN trispecific antibody 5Y3-2 (other, Trispecific, three chains, structure as for 5Y3-1) light: [omitted - about 100 residues][omitted - about 100 residues] heavy: EVQLVESGGGLVQPGGSLRLSCAASGFTFNTYAMNWVRQAPGKGLEWVARIRSKYNNYATYYADSVKGRFTISRDDSKSILYLQMNSLKTEDTAMYYCVRHERFGNSYVSWFAYWGQGTLVTVSSASTKGPSVFPLAPSSKSTSGGTAALGCLVKDYFPEPVTVSWNSGALTSGVHTFPAVLQSSGLYSLSSVVTVPSSSLGTQTYICNVNHKPSNTKVDKKVEPKSCDKTHTCPPCPAPEAAGAPSVFLFPPKPKDTLMISRTPEVTCVVVDVSHEDPEVKFNWYVDGVEVHNAKTKPREEQYNSTYRVVSVLTVLHQDWLNGKEYKCAVSNKALPAPIEKTISKAKGQPREPQVYTLPPSRDELTKNQVSLWCLVKGFYPSDIAVEWESNGQPENNYKTTPPVLDSDGSFFLYSKLTVDKSRWQQGNVFSCSVMHEALHNHYTQKSLSLSPGGGGGSGGGGSGGGGSEVQLVESGGGLIQPGGSLRLSCAASGNIGSIRHMGWVRQAPGKERELVATITTVGTTYYANFVKGRFTISRDNSKNTLYLQMNSLRAEDTAVYYCRATAHPTDYWGQGTLVTVSS EVQLVESGGGLIQPGGSLRLSCAASGNIGSIRHMGWVRQAPGKERELVATITTVGTTYYANFVKGRFTISRDNSKNTLYLQMNSLRAEDTAVYYCRATAHPTDYWGQGTLVTVSSGGGGSDKTHTCPPCPAPEAAGAPSVFLFPPKPKDTLMISRTPEVTCVVVDVSHEDPEVKFNWYVDGVEVHNAKTKPREEQYNSTYRVVSVLTVLHQDWLNGKEYKCAVSNKALPAPIEKTISKAKGQPREPQVYTLPPSRDELTKNQVSLSCAVKGFYPSDIAVEWESNGQPENNYKTTPPVLDSDGSFFLVSKLTVDKSRWQQGNVFSCSVMHEALHNHYTQKSLSLSPGGGGGSGGGGSGGGGSEVQLLESGGGLVQAGGSLRLSCAASGRTFSTNVMGWFRQAPGKGLEFVSAISRAGSTYSADSVKGRFTISRDNSKNTLYLQMNSLRAEDTAVYYCAAGSSPTAIFGKSGMDYWGQGTQVTVSS	4.66	399	195	52.9
CD3-PDL1-MSLN trispecific antibody 5Y3-3 (other, Trispecific, three chains, structure as for 5Y3-1) light: [omitted - about 100 residues][omitted - about 100 residues] heavy: EVQLVESGGGLVQPGGSLRLSCAASGFTFNTYAMNWVRQAPGKGLEWVARIRSKYNNYATYYADSVKDRFTISRDDSKSSLYLQMNNLKTEDTAMYYCVRHGNFGNTYVSWFAMWGQGTLVTVSSASTKGPSVFPLAPSSKSTSGGTAALGCLVKDYFPEPVTVSWNSGALTSGVHTFPAVLQSSGLYSLSSVVTVPSSSLGTQTYICNVNHKPSNTKVDKKVEPKSCDKTHTCPPCPAPEAAGAPSVFLFPPKPKDTLMISRTPEVTCVVVDVSHEDPEVKFNWYVDGVEVHNAKTKPREEQYNSTYRVVSVLTVLHQDWLNGKEYKCAVSNKALPAPIEKTISKAKGQPREPQVYTLPPSRDELTKNQVSLWCLVKGFYPSDIAVEWESNGQPENNYKTTPPVLDSDGSFFLYSKLTVDKSRWQQGNVFSCSVMHEALHNHYTQKSLSLSPGGGGGSGGGGSGGGGSEVQLVESGGGLIQPGGSLRLSCAASGNIGSIRHMGWVRQAPGKERELVATITTVGTTYYANFVKGRFTISRDNSKNTLYLQMNSLRAEDTAVYYCRATAHPTDYWGQGTLVTVSS EVQLVESGGGLIQPGGSLRLSCAASGNIGSIRHMGWVRQAPGKERELVATITTVGTTYYANFVKGRFTISRDNSKNTLYLQMNSLRAEDTAVYYCRATAHPTDYWGQGTLVTVSSGGGGSDKTHTCPPCPAPEAAGAPSVFLFPPKPKDTLMISRTPEVTCVVVDVSHEDPEVKFNWYVDGVEVHNAKTKPREEQYNSTYRVVSVLTVLHQDWLNGKEYKCAVSNKALPAPIEKTISKAKGQPREPQVYTLPPSRDELTKNQVSLSCAVKGFYPSDIAVEWESNGQPENNYKTTPPVLDSDGSFFLVSKLTVDKSRWQQGNVFSCSVMHEALHNHYTQKSLSLSPGGGGGSGGGGSGGGGSEVQLLESGGGLVQAGGSLRLSCAASGRTFSTNVMGWFRQAPGKGLEFVSAISRAGSTYSADSVKGRFTISRDNSKNTLYLQMNSLRAEDTAVYYCAAGSSPTAIFGKSGMDYWGQGTQVTVSS	4.65	396	260	15.5
CD3-PDL1-MSLN trispecific antibody 5Y3-11 (other, Trispecific, three chains, structure as for 5Y3-1) light: [omitted - about 100 residues][omitted - about 100 residues] heavy: EVQLVESGGGLVQPGGSLRLSCAASGFTFNTYAMNWVRQAPGKGLEWVARIRSKYNNYATYYADSVKGRFTISRDDSKSILYLQMNSLKTEDTAMYYCVRHERFGNSYVSWFAYWGQGTLVTVSSASTKGPSVFPLAPSSKSTSGGTAALGCLVKDYFPEPVTVSWNSGALTSGVHTFPAVLQSSGLYSLSSVVTVPSSSLGTQTYICNVNHKPSNTKVDKKVEPKSCDKTHTCPPCPAPEAAGAPSVFLFPPKPKDTLMISRTPEVTCVVVDVSHEDPEVKFNWYVDGVEVHNAKTKPREEQYNSTYRVVSVLTVLHQDWLNGKEYKCAVSNKALPAPIEKTISKAKGQPREPQVYTLPPSRDELTKNQVSLWCLVKGFYPSDIAVEWESNGQPENNYKTTPPVLDSDGSFFLYSKLTVDKSRWQQGNVFSCSVMHEALHNHYTQKSLSLSPGGGGGSGGGGSGGGGSEVQLVESGGGLIQPGGSLRLSCAASGNIGSIRHMGWVRQAPGKERELVATITTVGTTYYANFVKGRFTISRDNSKNTLYLQMNSLRAEDTAVYYCRATAHPTDYWGQGTLVTVSS EVQLVESGGGLIQPGGSLRLSCAASGNIGSIRHMGWVRQAPGKERELVATITTVGTTYYANFVKGRFTISRDNSKNTLYLQMNSLRAEDTAVYYCRATAHPTDYWGQGTLVTVSSGGGGSDKTHTCPPCPAPEAAGAPSVFLFPPKPKDTLMISRTPEVTCVVVDVSHEDPEVKFNWYVDGVEVHNAKTKPREEQYNSTYRVVSVLTVLHQDWLNGKEYKCAVSNKALPAPIEKTISKAKGQPREPQVYTLPPSRDELTKNQVSLSCAVKGFYPSDIAVEWESNGQPENNYKTTPPVLDSDGSFFLVSKLTVDKSRWQQGNVFSCSVMHEALHNHYTQKSLSLSPGGGGGSGGGGSGGGGSEVQLLESGGGLVQPGGSLRLSCAASGRTFSTNVMGWFRQAPGKEREFVSAISRAGSTYSADSVKGRFTISRDNSKNTLYLQMNSLRAEDTAVYYCAAGSSPTAIFGKSGMDYWGQGTQVTVSS	4.38	362	245	12.7
CD3-PDL1-MSLN trispecific antibody 5Y3-12 (other, Trispecific, three chains, structure as for 5Y3-1) light: [omitted - about 100 residues][omitted - about 100 residues] heavy: EVQLVESGGGLVQPGGSLRLSCAASGFTFNTYAMNWVRQAPGKGLEWVARIRSKYNNYATYYADSVKDRFTISRDDSKSSLYLQMNNLKTEDTAMYYCVRHGNFGNTYVSWFAMWGQGTLVTVSSASTKGPSVFPLAPSSKSTSGGTAALGCLVKDYFPEPVTVSWNSGALTSGVHTFPAVLQSSGLYSLSSVVTVPSSSLGTQTYICNVNHKPSNTKVDKKVEPKSCDKTHTCPPCPAPEAAGAPSVFLFPPKPKDTLMISRTPEVTCVVVDVSHEDPEVKFNWYVDGVEVHNAKTKPREEQYNSTYRVVSVLTVLHQDWLNGKEYKCAVSNKALPAPIEKTISKAKGQPREPQVYTLPPSRDELTKNQVSLWCLVKGFYPSDIAVEWESNGQPENNYKTTPPVLDSDGSFFLYSKLTVDKSRWQQGNVFSCSVMHEALHNHYTQKSLSLSPGGGGGSGGGGSGGGGSEVQLVESGGGLIQPGGSLRLSCAASGNIGSIRHMGWVRQAPGKERELVATITTVGTTYYANFVKGRFTISRDNSKNTLYLQMNSLRAEDTAVYYCRATAHPTDYWGQGTLVTVSS EVQLVESGGGLIQPGGSLRLSCAASGNIGSIRHMGWVRQAPGKERELVATITTVGTTYYANFVKGRFTISRDNSKNTLYLQMNSLRAEDTAVYYCRATAHPTDYWGQGTLVTVSSGGGGSDKTHTCPPCPAPEAAGAPSVFLFPPKPKDTLMISRTPEVTCVVVDVSHEDPEVKFNWYVDGVEVHNAKTKPREEQYNSTYRVVSVLTVLHQDWLNGKEYKCAVSNKALPAPIEKTISKAKGQPREPQVYTLPPSRDELTKNQVSLSCAVKGFYPSDIAVEWESNGQPENNYKTTPPVLDSDGSFFLVSKLTVDKSRWQQGNVFSCSVMHEALHNHYTQKSLSLSPGGGGGSGGGGSGGGGSEVQLLESGGGLVQPGGSLRLSCAASGRTFSTNVMGWFRQAPGKEREFVSAISRAGSTYSADSVKGRFTISRDNSKNTLYLQMNSLRAEDTAVYYCAAGSSPTAIFGKSGMDYWGQGTQVTVSS	4.24	380	342	12.4
CD3-PDL1-MSLN trispecific antibody 5Y3-13 (other, Trispecific, three chains, structure as for 5Y3-1) light: [omitted - about 100 residues][omitted - about 100 residues] heavy: EVQLVESGGGLVQPGGSLRLSCAASGFTFNTYAMNWVRQAPGKGLEWVARIRSKYNNYATYYADSVKGRFTISRDDSKSSLYLQMNSLKTEDTAVYYCVRHGNFGNNYVSWFASWGQGTLVTVSSASTKGPSVFPLAPSSKSTSGGTAALGCLVKDYFPEPVTVSWNSGALTSGVHTFPAVLQSSGLYSLSSVVTVPSSSLGTQTYICNVNHKPSNTKVDKKVEPKSCDKTHTCPPCPAPEAAGAPSVFLFPPKPKDTLMISRTPEVTCVVVDVSHEDPEVKFNWYVDGVEVHNAKTKPREEQYNSTYRVVSVLTVLHQDWLNGKEYKCAVSNKALPAPIEKTISKAKGQPREPQVYTLPPSRDELTKNQVSLWCLVKGFYPSDIAVEWESNGQPENNYKTTPPVLDSDGSFFLYSKLTVDKSRWQQGNVFSCSVMHEALHNHYTQKSLSLSPGGGGGSGGGGSGGGGSEVQLVESGGGLIQPGGSLRLSCAASGNIGSIRHMGWVRQAPGKERELVATITTVGTTYYANFVKGRFTISRDNSKNTLYLQMNSLRAEDTAVYYCRATAHPTDYWGQGTLVTVSS EVQLVESGGGLIQPGGSLRLSCAASGNIGSIRHMGWVRQAPGKERELVATITTVGTTYYANFVKGRFTISRDNSKNTLYLQMNSLRAEDTAVYYCRATAHPTDYWGQGTLVTVSSGGGGSDKTHTCPPCPAPEAAGAPSVFLFPPKPKDTLMISRTPEVTCVVVDVSHEDPEVKFNWYVDGVEVHNAKTKPREEQYNSTYRVVSVLTVLHQDWLNGKEYKCAVSNKALPAPIEKTISKAKGQPREPQVYTLPPSRDELTKNQVSLSCAVKGFYPSDIAVEWESNGQPENNYKTTPPVLDSDGSFFLVSKLTVDKSRWQQGNVFSCSVMHEALHNHYTQKSLSLSPGGGGGSGGGGSGGGGSEVQLLESGGGLVQPGGSLRLSCAASGRTFSSYVMGWFRQAPGKEREFVSAISRAGSTYSADSVKGRFTISRDNSKNTLYLQMNSLRAEDTAVYYCAAGSSPTAIFGKSGMDYWGQGTQVTVSS	4.38	146	759	36
